Over roughly 110,000 compounds, “z-score” has its median near -0.1; the highest 2% begin near 2. This is one part of the list.
Biological target: Metabotropic glutamate receptor 8 (Rattus norvegicus) (UniProt P70579)
Experiment: mGluR8 Gi/Go-coupled signaling modulation – cell-based, rat, thallium flux, HTS, primary screen (AID 488969)
Details: HEK293 rat mGluR8, GIRK (G protein-gated inwardly rectifying potassium channel) thallium flux, FluoZin2; at 10 µM; stronger effect = higher value; submaximal glutamate (EC20) added with thallium

Sequence of UniProt P70579 (P70579 whole entry, looked up): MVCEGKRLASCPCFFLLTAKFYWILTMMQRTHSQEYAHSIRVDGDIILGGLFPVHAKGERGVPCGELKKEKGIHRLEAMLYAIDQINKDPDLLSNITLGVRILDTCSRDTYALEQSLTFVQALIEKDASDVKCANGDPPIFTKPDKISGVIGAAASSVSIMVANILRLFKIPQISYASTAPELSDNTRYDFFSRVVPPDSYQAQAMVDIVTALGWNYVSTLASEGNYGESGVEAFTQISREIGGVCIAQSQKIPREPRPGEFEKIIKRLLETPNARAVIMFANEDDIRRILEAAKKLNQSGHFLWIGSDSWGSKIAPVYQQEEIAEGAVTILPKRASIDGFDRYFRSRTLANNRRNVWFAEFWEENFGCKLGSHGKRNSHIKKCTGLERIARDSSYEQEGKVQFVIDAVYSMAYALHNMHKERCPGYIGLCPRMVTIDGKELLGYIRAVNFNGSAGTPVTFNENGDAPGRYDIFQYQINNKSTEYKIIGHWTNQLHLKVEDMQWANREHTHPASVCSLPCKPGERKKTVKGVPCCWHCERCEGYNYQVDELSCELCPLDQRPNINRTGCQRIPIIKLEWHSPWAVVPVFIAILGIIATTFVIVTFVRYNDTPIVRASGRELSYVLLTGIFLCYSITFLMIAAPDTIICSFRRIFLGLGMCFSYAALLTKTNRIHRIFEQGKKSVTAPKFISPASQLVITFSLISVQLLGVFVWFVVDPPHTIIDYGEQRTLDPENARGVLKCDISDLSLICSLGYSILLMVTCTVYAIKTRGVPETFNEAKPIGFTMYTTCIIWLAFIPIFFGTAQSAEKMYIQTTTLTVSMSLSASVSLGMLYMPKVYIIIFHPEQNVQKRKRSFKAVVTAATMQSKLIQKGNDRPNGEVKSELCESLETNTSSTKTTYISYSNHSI

Row | SMILES | z-score
1 | C[N+]1(CC(=O)Nc2ccccc2Cl)CCN(C(=O)c2cccs2)CC1 | 0.141
2 | CCOc1cc2c3c(c1)C1(Nc4ccccc4S1)C(=O)N3C(C)(C)CC2C (centres undefined) | -1.21
3 | C/C(=N\NC(=O)C(C)n1nc(C)c([N+](=O)[O-])c1C)c1ccccc1O (centres undefined) | 0.938
4 | CCCCCCOc1ccc(C(=O)n2cnc(N)n2)cc1 | 0.329
5 | Cc1ccccc1N(CC(=O)Nc1ccccc1C(=O)O)S(C)(=O)=O | 0.226
6 | CN(C(=O)CN1C(=O)c2ccccc2S1(=O)=O)c1ccccc1C(=O)O | 0.248
7 | COc1ccc(C2=NC(C(F)(F)F)(C(F)(F)F)c3c(n(C)c(=O)n(C)c3=O)N2)cc1 | 0.0715
8 | O=C(Nc1ccccc1N1CCOCC1)C1CCN(S(=O)(=O)c2cccc(C(F)(F)F)c2)CC1 | -0.294
9 | Cc1ncsc1CCOC(=O)c1cccc([N+](=O)[O-])c1 | -0.117
10 | C/C(=N\NS(=O)(=O)c1ccc(Cl)c([N+](=O)[O-])c1)c1ccc(C)o1 | 0.17
11 | O=C(/C=C\c1ccco1)Nc1ccc(N2CCN(C(=O)c3ccccc3)CC2)cc1 | -0.287
12 | COc1ccc(Cl)c(S(=O)(=O)N2CCCC2)c1 | 1.16
13 | COc1ccc(OC)c(NC(=O)c2cc3c(Cl)nc4ccccc4c3s2)c1 | -0.02
14 | Cc1ccc(OCC(=O)Nc2ccc(S(=O)(=O)Nc3ccccn3)cc2)c(C)c1 | -0.153
15 | CC1Cc2ccccc2N1C(=O)CSC1=NCCS1 (centres undefined) | -0.206
16 | CCCCCCc1cc2cc(-c3nnc(-c4ccccc4OC)o3)c(=O)oc2cc1O | -0.211
17 | CN(C(=O)CCN1C(=O)c2ccccc2C1=O)C1CCCCC1 | -0.12
18 | O=C(c1ccc(-c2cccc(C(F)(F)F)c2)o1)N1CCOCC1 | 0.431
19 | Cc1ccc(CCNC(=O)C2CCCN(c3nc4ccccc4o3)C2)cc1 (centres undefined) | 0.299
20 | Nc1nc(-c2cccc(NS(=O)(=O)c3ccccc3)c2)cs1 | 1.4
21 | CC(C)(C)C(=O)N1CCCC1C(=O)O (centres undefined) | 0.797
22 | Clc1ccc(CN2CCN(c3ncnc4scc(-c5cccs5)c34)CC2)cc1 | 0.00228
23 | COc1ccc2[nH]c(=O)c(CN(Cc3nnnn3Cc3ccccc3)CC3CCCO3)cc2c1 (centres undefined) | 0.619

Row | SMILES | z-score
24 | O=C(CCCCCN1C(=O)c2ccccc2C1=O)NCc1ccco1 | 0.687
25 | O=C(NCc1ccccc1)c1cc(-n2cnnc2)ccc1Cl | 0.026
26 | COCCn1c(C)nc2oc3ccc(Br)cc3c(=O)c2c1=O | -0.75
27 | CSc1ccc(CN(C)CC(=O)Nc2ccccc2Br)cc1 | -0.0592
28 | COc1ccc(NC(=O)CN2CCN(C3c4ccccc4-c4ccccc43)CC2)c(OC)c1 | -1.15
29 | Cc1ccc(NC(=O)CN(C)C(=O)COc2c(Cl)cc(Cl)c3ccc(C)nc23)cc1 | -0.273
30 | Cc1[nH]c(=O)[nH]c(=O)c1NC(=O)c1sc2nc3c(C)cccc3cc2c1N | -0.256
31 | COc1cccc(N/C=C/C(=O)c2ccc(Cl)cc2)c1 | 0.0619
32 | CC(=O)Nc1ccc(NC(=O)CSCCc2ccccn2)cc1 | 0.263
33 | COc1cc(CNCc2ccccn2)ccc1OCC(=O)NC(C)(C)C | -0.0846
34 | CC(C)C[C@H](NC(=O)OC(C)(C)C)c1nnc(SCC(=O)Nc2ccc(Br)cc2)o1 | -0.171
35 | O=C1C(C2=NC(C(=O)O)C3C(=O)N(c4ccc(Cl)cc4)C(=O)C23)=C(O)c2ccccc21 (centres undefined) | 0.452
36 | O=S(=O)(c1ccccc1Cl)N1CCCC1c1nc(-c2ccc(Cl)cc2)no1 (centres undefined) | 0.14
37 | CCC(Oc1ccccc1)C(=O)N1CC(C)CC(C)C1 (centres undefined) | -0.11
38 | O=C(Cc1cccc2ccccc12)NNC(=O)Nc1cccc(Cl)c1 | -0.184
39 | COc1ccc(CC(=O)NNS(=O)(=O)c2ccc3ccccc3c2)cc1OC | 0.00396
40 | Cc1ccc2c([N+](=O)[O-])cccc2n1 | -0.0936
41 | Cc1c(C#N)c(N)c(C(=O)c2ccccc2)n1Cc1ccccc1 | -1.22
42 | O=C(N/N=C\C=C\c1ccco1)c1cc(-c2ccc3ccccc3c2)n[nH]1 | -0.343
43 | CCn1c(SCC(=O)c2ccc(OC)cc2)nnc1C(C)NC(=O)c1ccc(OC)cc1 (centres undefined) | 0.438
44 | COc1cc2c(cc1NC(=O)CSc1nc3ccc(C)cc3[nH]1)oc1ccccc12 | -0.547
45 | Cn1c(SCC(=O)N2CCN(c3ccccc3)CC2)nnc1-c1ccncc1 | 0.0808
46 | CC1(C)C(=O)OC(c2c(F)c(F)c(F)c(F)c2F)C2(CCCCC2)C1=O (centres undefined) | 0.58

Row | SMILES | z-score
47 | Cc1nnc(C)n1/N=C/c1cccs1 | -0.34
48 | COC(=O)c1sccc1NC(=S)Nc1cc(C)cc(C)c1 | 0.0724
49 | CS/C(=C\[N+](=O)[O-])Nc1ccc(Cl)cc1 | 0.484
50 | CCc1c(C)sc(NC(=O)Cn2nc(C(F)(F)F)c3c2CCCC3)c1C#N | 0.0133
51 | O=C(CSc1nc2c(sc3ccccc32)c(=O)n1CCO)NCc1ccco1 | 0.191
52 | O=S(=O)(N/N=C/c1ccc(Cl)cc1)c1ccc(Cc2ncc(C(F)(F)F)cc2Cl)s1 | -0.511
53 | O=C(NCc1ccc(Cl)cc1)c1cccnc1 | 0.686
54 | O=C(O)C1C2C=CC(C3CC23)C1C(=O)N1CCc2ccccc21 (centres undefined) | -2.23
55 | Cc1nnc(NC(=O)CSc2nnc(Cc3cccn3C)n2CCc2ccccc2)s1 | -0.602
56 | CN(C)/C=N/c1sc2c(c1C#N)CC(C)(C)NC2(C)C | -0.745
57 | CCN(c1ccccc1)S(=O)(=O)c1cc(C(=O)Nc2ccccc2Cl)ccc1F | 2.19
58 | O=C1CSC(c2cccc(F)c2)N1c1ccccc1F (centres undefined) | 0.00531
59 | COc1ccc(/C=N/NC(=O)Cc2cc(OC)c(OC)cc2[N+](=O)[O-])cc1 | -0.604
60 | CS(=O)(=O)c1ccc2nc(NC(=O)c3cccc(NS(=O)(=O)c4ccc(F)c(F)c4)c3)sc2c1 | 0.695
61 | CCOC(=O)C1CCN(C(=S)Nc2cc(OC)c(OC)cc2C(=O)OC)CC1 | -0.0735
62 | O=C(Cc1ccc(S(=O)(=O)N2CCOCC2)s1)Nc1nc2c(s1)CCCC2 | 0.2
63 | CCn1c(SCc2nc(-c3ccccc3)no2)nnc1-c1ccco1 | -0.421
64 | CCOC(=O)Cn1c(S(=O)(=O)Cc2ccccc2Cl)nc(-c2ccccc2)c1-c1ccccc1 | -0.734
65 | C=CCNC(=O)NC(=O)COC(=O)c1cccnc1SC | 0.108
66 | O=C(CCS(=O)(=O)c1ccc(Br)cc1)Nc1ccccn1 | 0.171
67 | O=C(NC(=S)N1CCCCC1)c1cccs1 | 0.578
68 | NC(=S)NNC(=O)Nc1ccc(Cl)c(Cl)c1 | 0.243
69 | O=C(c1ccc(Cl)cc1)[C@@H]1[C@@H]2C(=O)N(c3ccc(Cl)cc3)C(=O)[C@@H]2C2c3ccccc3C=NN21 (some centres undefined) | 0.263
